Laboratory results reported in PubChem BioAssay AID1347165 (National Center for Advancing Translational Sciences (NCATS), 2019).
In all, about 220,000 compounds went through this assay and about 5,700 (2.6%) were called active. The inconclusive results got no clear call from the source; some entries with a clear call stand among them for comparison. The call rests on the fitted dose curve; in most records, active means well fitted inhibition curve with a large enough effect; inconclusive means small, poorly fitted or top-dose-only effect; inactive means no such curve, though single readings can be large or run the other way. Potencies beside an inconclusive call are fits to weak or partial responses and may not hold up.

These molecules were tested against Lysine-specific demethylase 5B (Homo sapiens) (UniProt Q9UGL1) (assay: Primary screen for KDM5B Histone Demethylases FDH-coupled qHTS). Details: FDH-coupled NADH fluorescence (FDH is formaldehyde dehydrogenase); activity change, negative = inhibition: at 57.7 µM (top of the series) unless noted.
Summary of the method: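 Inhibition is measured as reduced NADH fluorescence generation from FDH coupling to formaldehyde release. Truncated KDM5BΔAP at 200 nM final acts on H3K4me3 peptide (12.5 µM in substrate mix) in pH 7.5 HEPES buffer with Tween-20, 30 min, room temperature.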
Further: nearly all actives have a fitted effect of over 70% in size.
Potency means the concentration at half of the fitted maximal effect; tags describe the fitted curve by direction and shape.
Wherever activity change, negative = inhibition is given: 0% is about no effect.

UniProt Q9UGL1, sequence (Q9UGL1 whole entry, looked up, the tested form may be a part): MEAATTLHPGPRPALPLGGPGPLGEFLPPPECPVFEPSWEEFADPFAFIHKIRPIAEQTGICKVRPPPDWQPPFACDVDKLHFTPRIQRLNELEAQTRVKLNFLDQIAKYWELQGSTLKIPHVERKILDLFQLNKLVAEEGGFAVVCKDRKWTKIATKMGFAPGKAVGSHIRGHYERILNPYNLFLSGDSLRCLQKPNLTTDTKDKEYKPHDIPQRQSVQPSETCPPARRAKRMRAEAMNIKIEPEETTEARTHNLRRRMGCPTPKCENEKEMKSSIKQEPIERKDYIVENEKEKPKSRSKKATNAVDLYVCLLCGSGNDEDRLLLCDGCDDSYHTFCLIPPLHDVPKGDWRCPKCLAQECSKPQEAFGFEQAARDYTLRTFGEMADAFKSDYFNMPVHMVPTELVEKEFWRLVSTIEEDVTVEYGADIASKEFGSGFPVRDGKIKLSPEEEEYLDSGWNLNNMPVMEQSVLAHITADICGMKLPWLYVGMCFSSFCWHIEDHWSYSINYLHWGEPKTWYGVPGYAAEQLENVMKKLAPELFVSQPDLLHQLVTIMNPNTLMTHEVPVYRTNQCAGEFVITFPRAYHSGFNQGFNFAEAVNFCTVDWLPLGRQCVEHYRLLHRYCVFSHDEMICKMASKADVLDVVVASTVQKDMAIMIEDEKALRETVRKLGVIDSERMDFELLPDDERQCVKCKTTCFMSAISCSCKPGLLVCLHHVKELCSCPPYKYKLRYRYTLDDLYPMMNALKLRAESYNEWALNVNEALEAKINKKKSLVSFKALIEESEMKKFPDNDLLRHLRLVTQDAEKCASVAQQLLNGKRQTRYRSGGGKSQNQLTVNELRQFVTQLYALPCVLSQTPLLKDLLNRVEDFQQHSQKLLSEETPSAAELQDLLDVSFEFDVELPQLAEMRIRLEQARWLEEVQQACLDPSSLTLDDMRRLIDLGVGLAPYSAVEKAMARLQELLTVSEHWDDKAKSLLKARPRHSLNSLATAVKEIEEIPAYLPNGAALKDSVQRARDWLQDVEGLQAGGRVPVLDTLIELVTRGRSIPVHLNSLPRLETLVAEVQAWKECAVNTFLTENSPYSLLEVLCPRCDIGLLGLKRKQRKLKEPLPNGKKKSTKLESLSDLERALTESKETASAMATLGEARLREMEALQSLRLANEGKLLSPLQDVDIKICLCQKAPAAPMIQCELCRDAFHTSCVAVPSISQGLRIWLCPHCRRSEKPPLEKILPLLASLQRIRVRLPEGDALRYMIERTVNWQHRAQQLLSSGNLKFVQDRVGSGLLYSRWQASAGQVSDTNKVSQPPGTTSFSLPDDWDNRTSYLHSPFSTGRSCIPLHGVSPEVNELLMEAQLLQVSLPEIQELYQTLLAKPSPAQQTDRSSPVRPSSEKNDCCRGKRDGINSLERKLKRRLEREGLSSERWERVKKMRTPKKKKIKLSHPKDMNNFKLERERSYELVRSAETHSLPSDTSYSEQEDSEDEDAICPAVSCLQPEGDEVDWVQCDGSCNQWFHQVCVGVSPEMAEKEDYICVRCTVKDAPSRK

| Structure (SMILES) | Potency | activity change, negative = inhibition |
| --- | --- | --- |
| CCc1c(C(=O)NC2CCN(C(C)C)CC2)csc1C | inconclusive: 28.2 µM [inhibitor, single point] |  |
| O=C(c1cccc(Cl)c1)N1CCC2(C1)C(=O)N(CCc1ccccc1)c1ccccc12 (configuration not stated) | inconclusive: 28.2 µM [inhibitor, partial curve, poor fit] |  |
| COC(=O)c1cc2oc(C)cc2n1CC(=O)Nc1ccc(C)cc1C | inconclusive: 2.82 µM [inhibitor, partial curve, poor fit] |  |
| N#Cc1nc(/C=C/c2ccc(F)cc2)oc1NCc1ccc2c(c1)OCO2 | inconclusive: 12.6 µM [inhibitor, partial curve, poor fit] |  |
| O=C(CCc1nc(CS(=O)(=O)c2ccc(F)cc2)no1)NCCc1ccccc1Cl | inactive |  |
| CCC/C(=N\NC(N)=S)c1ccccc1 | inconclusive: 11.2 µM [inhibitor, partial curve, poor fit] |  |
| Cn1ccc(C(=O)N2CC3ON=C(C(=O)N4CCN(c5ncccn5)CC4)C3C2)n1 (configuration not stated) | inconclusive: 56.2 µM [inhibitor, partial curve, poor fit] |  |
| CC(=O)Nc1ccc(N2CCN(c3ccc(C(F)(F)F)cn3)CC2)nc1 | inconclusive: 31.6 µM [inhibitor, single point] |  |
| COc1cc(NC(=O)Cn2c(C)cc3ccccc3c2=O)cc(OC)c1OC |  | inconclusive: -89% [inhibitor] |
| CC(=O)Nc1cccc(-c2nc(-c3c(C)noc3C)cc3cc(CO)oc23)c1 | active: 39.8 µM |  |
| CC(C)C(=O)N1Cc2ccccc2CC2(CCCN(CC3CCNC3)C2)C1 (configuration not stated) | active: 35.5 µM |  |
| Cc1nc(-c2ccc(F)cc2)sc1CCNC(=O)c1ccco1 | inconclusive: 31.6 µM [inhibitor, partial curve, poor fit] |  |
| C[C@@H]1C(=O)O[C@H]2[C@H]1CC[C@@]1(C)Cc3sc(NCc4ccccc4)nc3[C@@H](C)[C@H]21 | inconclusive: 31.6 µM [inhibitor, single point] |  |
| Cc1cc(C)cc(NC(=O)Cn2nnc(C(=O)Nc3cc(C)cc(C)c3)c2N)c1 | inconclusive: 28.2 µM [inhibitor, partial curve, poor fit] |  |
| CC1(c2ccccc2)N(Cc2ccccc2F)C(=O)OC12CCN(C(=O)Cc1ccc(O)cc1)CC2 (configuration not stated) | inconclusive: 35.5 µM [inhibitor, single point] |  |
| COc1ccc(NC(=O)C2(C)CN(C)Cc3ccc(Nc4cccc(OC)c4)nc32)cc1 (configuration not stated) | active: 14.1 µM |  |
| CCOC(=O)c1[nH]c(C)c(CCC(=O)Nc2ccc(N(CC)CC)cc2C)c1C | inconclusive: 28.2 µM [inhibitor, partial curve, poor fit] |  |
| N/C(=C\C(=O)c1c(O)c(F)c(F)c(F)c1F)C(=O)O | inconclusive: 10 µM [inhibitor, partial curve, poor fit] |  |
| O=C(NC1CCCC1)C1CCCN(C(=O)Cc2c[nH]c3ccccc23)C1 (configuration not stated) | inactive |  |
| O=C(NCCN1CCCCC1)C1(CCO)CCN(c2ncccn2)C1 (configuration not stated) | active: 25.1 µM |  |
| CC(=O)Nc1cccc(-c2nc(-c3c(C)noc3C)cc3cc(C)oc23)c1 | active: 35.5 µM |  |
| Cc1ccc(-n2ncc3c(NCCCc4ccccc4)ncnc32)cc1C | inconclusive: 35.5 µM [inhibitor, partial curve, poor fit] |  |
| Cc1ccc(CN2CCN(c3nc4c([nH]3)c(=O)n(C)c(=O)n4C)CC2)cc1 | inactive |  |

| Structure (SMILES) | Potency | activity change, negative = inhibition |
| --- | --- | --- |
| Clc1ccc(CN2CC[C@H](c3nc4cc(Cl)ccc4o3)C2)cc1 | inconclusive: 39.8 µM [inhibitor, partial curve, poor fit] |  |
| CCOc1nc2ccccc2nc1N1CCC(C(=O)NCc2ccc(C)cc2)CC1 | inactive |  |
| Cc1cn2nc(-c3nc(C4CCCN(C(=O)c5ccccc5)C4)no3)cc2c(=O)[nH]1 (configuration not stated) | inactive |  |
| Cc1ccc(CCNc2nc3c(S(=O)(=O)c4ccc(C)cc4)nnn3c3ccsc23)cc1 | inconclusive: 1.78 µM [inhibitor, partial curve, poor fit] |  |
| Cn1ccc(C(=O)N2CC(CNc3ccccc3)C3(C2)CN(c2ccccc2)C3)n1 (configuration not stated) | inconclusive: 35.5 µM [inhibitor, partial curve, poor fit] |  |
| O=C(NCc1nc(-c2ncccn2)no1)c1csc(-c2cccs2)n1 | inconclusive: 31.6 µM [inhibitor, partial curve] |  |
| O=C(CSc1ncnc2c1oc1ccccc12)NC1CCCCCC1 | inactive |  |
| COc1ccccc1C(CNC(=O)c1cccc2c(=O)c(C)c(-c3ccccc3)oc12)N(C)C (configuration not stated) | inactive |  |
| CCc1nc(-c2c3n(c(=O)n(Cc4ccc(C#N)cc4)c2=O)CCCC3)no1 | inactive |  |
| CCCCc1cc(=O)oc2cc(C)cc(OC(C)C(=O)NCCCO)c12 (configuration not stated) | inconclusive: 22.4 µM [inhibitor, partial curve, poor fit] |  |
| O=C(c1nc(-c2ccc(F)cc2)c2cnccn12)N1CCOCC1 | active: 39.8 µM |  |
| O=C(c1ccsc1)N1CCC(Oc2ccccc2-c2nc(C3CC3)no2)C1 (configuration not stated) | inconclusive: 31.6 µM [inhibitor, partial curve, poor fit] |  |
| Cc1nonc1Cc1nc(C2CCOCC2)nn1CC1COCCO1 (configuration not stated) | inactive |  |
| Cc1ccc(-c2cc(-c3cccnc3)nc3c(C)noc23)c(C)c1 | inconclusive: 39.8 µM [inhibitor, partial curve, poor fit] |  |
| COc1ccc2c(c1)c1c(c(=O)n(-c3ccccc3C)c(=O)n1CC(=O)Nc1c(C)cccc1C)n2C | inconclusive: 6.31 µM [inhibitor, partial curve, poor fit] |  |
| CCCn1c(N)c(N(CCOC)C(=O)c2cc(-c3ccco3)nc3ccccc23)c(=O)[nH]c1=O | inconclusive: 28.2 µM [inhibitor, partial curve, poor fit] |  |
| CN(CC(=O)NC(C)(C)C)C(=O)CCl | inactive |  |
| COC(=O)c1ccc2nc(CO[C@H]3CN(C(C)C)C[C@H]3F)[nH]c2c1 | inconclusive: 31.6 µM [inhibitor, single point] |  |
| CC(=O)NC1=NN(C(C)=O)C2(S1)C(=O)N(CCOc1ccccc1)c1c(Cl)cccc12 (configuration not stated) | inactive |  |
| Cc1cc(C)cc(-c2ccccc2C=O)c1 | inactive |  |
| COc1ccc2c(C)c(CCC(=O)N3CCOCC3)c(=O)oc2c1 | inconclusive: 28.2 µM [inhibitor, partial curve, poor fit] |  |
| COC1CCN(C(=O)Cn2c3c(c(=O)n2Cc2ccccc2)CCN(Cc2ccccc2)C3)CC1 | inactive |  |
| CONC(=O)CC(c1ccccc1)c1ccccc1 | inactive |  |

| Structure (SMILES) | Potency | activity change, negative = inhibition |
| --- | --- | --- |
| Cn1cc(CNC(=O)C[C@@H]2C[C@H]3O[C@H](CNC(=O)Nc4cccs4)[C@@H](O)[C@H]3O2)cn1 | inconclusive: 35.5 µM [inhibitor, partial curve, poor fit] |  |
| COc1ccc2ccccc2c1/C=C(/C#N)C(=O)Nc1ccccc1C(F)(F)F | inactive |  |
| COc1ccccc1Oc1c(C)oc2cc(OCC(=O)Nc3cccc(O)c3)ccc2c1=O | inactive |  |
| COc1ccc(-c2ccc3c(c2)C(=O)N2CCN(C(=O)c4ccccc4)C[C@@H]2C(=O)N3)cc1 | inconclusive: 28.2 µM [inhibitor, partial curve, poor fit] |  |
| O=C(CCc1ccccc1)N1CCCC(c2nn[nH]n2)C1 (configuration not stated) | inconclusive: 39.8 µM [inhibitor, partial curve, poor fit] |  |
| O=C(O)CCc1ccc(-c2ccccc2)n1CC(=O)Nc1ccccc1C(F)(F)F | inconclusive: 17.8 µM [inhibitor, partial curve, poor fit] |  |
| Nc1c(N(Cc2ccco2)C(=O)COc2ccccc2F)c(=O)[nH]c(=O)n1Cc1ccccc1 | inconclusive: 31.6 µM [inhibitor, single point] |  |
| COc1cccc(NC(=O)C(=O)c2c(C)[nH]c3ccccc23)c1 | inactive |  |
| C[C@]1(CO)[C@H]2Cc3sc(NC(=O)c4ccco4)nc3[C@@H](CC(=O)NCc3ccccc3)[C@]2(C)CC[C@H]1O | inactive |  |
| O=C1CCN(Cc2ccccn2)CCCC(c2nc(-c3cnccn3)no2)CCN1 (configuration not stated) | inconclusive: 17.8 µM [inhibitor, single point] |  |
| N#Cc1cccc(NC(=O)C2CCN(c3ncccn3)CC2)c1 | inconclusive: 22.4 µM [inhibitor, single point] |  |
| CSc1ccc(-c2ccc3c(c2)C(=O)N2CC[C@H](NC(=O)C4CCNCC4)C[C@H]2C(=O)N3)cc1 | inconclusive: 17.8 µM [inhibitor, partial curve] |  |
| CC1CCC2(CC1)NC(=O)N(NC(=O)CCCc1c[nH]c3ccccc13)C2=O (configuration not stated) | inconclusive: 31.6 µM [inhibitor, partial curve, poor fit] |  |
| CC(C)C1CC(C)(C)c2ccc(O)cc21 (configuration not stated) | inactive |  |
| CC(=O)CCS(=O)(=O)c1ccc(Cc2ccc(S(=O)(=O)CCC(C)=O)cc2)cc1 | inactive |  |
| CC(NS(=O)(=O)Cc1ccc(F)cc1)c1ccccn1 (configuration not stated) | inactive |  |
| Cc1ccc2c(C)c(C(=O)NCC(c3cccs3)N3CCOCC3)oc2c1 (configuration not stated) | inactive |  |
| Cc1ccc(-c2ccc(=O)n(CC(=O)NCc3ccc(F)cc3)n2)cc1 | inconclusive: 22.4 µM [inhibitor, partial curve, poor fit] |  |
| O=C(CCCc1cccs1)N1CCCC(O)(CN2CCCC2)C1 (configuration not stated) | inconclusive: 3.98 µM [inhibitor, partial curve] |  |
| O=C(CCNC(=O)c1cccs1)Nc1cccnc1N1CCCC1 | inactive |  |
| Cc1ccc2nc3c(cc(C(=O)NC4CCCCC4)c(=N)n3C(C)C)c(=O)n2c1 | inconclusive: 8.91 µM [inhibitor, partial curve, poor fit] |  |
